A collection of fitness landscapes (doi:10.1016/j.celrep.2020.107928)
Whole data set: some 81,000 sequences, median “one-hybrid fitness for binding parS DNA” near -0.17, cut for the highest 2% near 0.51. Some of the results follow.

B1: Caulobacter ParB omega fusion; a variant is named by its letters at X, in order, B8GW30 (parent)
chain: MESVVVGEPGMSEGRRGLGRGLSALLGEVDAAPAQAPGEQLGGSREAPIEILQRNPDQPRRTFREEDLEDLSNSIREKGVLQPILVRPSPDTAGEYQIVAGERAWRAAQRAGLKTVPIMVRELDDLAVLEIGIIENVQRADLNVLEEALSYKVLMEKFERTQENIAQTIGKSXSHVANXMRLLXLPDEVQSYLVSGELTAXHARAIAAAADPVALAKQIIEGGLSVRETEALARKAPNLSAGKSKGGRPPRVKDTDTQALESDLSSVLGLDVSIDHRGSTGTLTITYATLEQLDDLCNRLTRGI

Variants of: B1
Assay: one-hybrid fitness for binding parS DNA (scaled: cognate 1, non-cognate 0); higher = stronger binding
Conditions: with parS DNA site
Summary of the method: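 In E. coli USO, a HIS3 reporter with its site placed 19 bp from the promoter was used to select Caulobacter ParB variants randomised at four specificity codons. Growth lasted 48 hours at 37°C on histidine-free M9 containing 0.1 mM IPTG and 5 mM 3-AT. Fitness was taken as the log change in variant-to-wild-type read ratio from Illumina sequencing of pre- and post-selection plasmids, rescaled between the non-cognate and cognate sites.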

Variant	one-hybrid fitness for binding parS DNA
HTMG	≤ 0.2
RHVV	≤ 0.2
TWNL	≤ 0.2
RNRT	0.786
GMVG	≤ 0.2
GSHG	≤ 0.2
ANSV	≤ 0.2
AVLK	≤ 0.2
QIIS	≤ 0.2
TNST	≤ 0.2
GENQ	≤ 0.2
FKLR	≤ 0.2
PWVS	≤ 0.2
ESTQ	≤ 0.2
QAEP	≤ 0.2
VKDG	≤ 0.2
DERG	≤ 0.2
RKGK	≤ 0.2
QFTC	≤ 0.2
SQQT	≤ 0.2
DQSG	≤ 0.2
LMHV	≤ 0.2
QIAF	≤ 0.2
KQTD	≤ 0.2
RIVH	≤ 0.2

Variant	one-hybrid fitness for binding parS DNA
KNYR	≤ 0.2
KNLK	≤ 0.2
FQDR	≤ 0.2
CFHV	≤ 0.2
KYKG	≤ 0.2
VEIC	≤ 0.2
MGCL	≤ 0.2
NDNN	≤ 0.2
LDQL	≤ 0.2
HNLA	≤ 0.2
CTEA	≤ 0.2
YAQG	≤ 0.2
VGMG	≤ 0.2
RMTG	1.02
RTDR	≤ 0.2
SQRV	≤ 0.2
CTCE	≤ 0.2
WTIC	≤ 0.2
SQVH	≤ 0.2
WQNS	≤ 0.2
WFPS	≤ 0.2
IGDS	0.213
PEAS	≤ 0.2
QTEV	≤ 0.2
HLTK	≤ 0.2

Variant	one-hybrid fitness for binding parS DNA
PECV	≤ 0.2
MLKS	≤ 0.2
YGST	≤ 0.2
RMMY	0.506
DGDT	≤ 0.2
RNPF	≤ 0.2
TFGF	≤ 0.2
QEHR	≤ 0.2
EPNG	≤ 0.2
LQKV	≤ 0.2
KIGR	≤ 0.2
GQAT	≤ 0.2
KALG	≤ 0.2
KRWW	≤ 0.2
SNNP	≤ 0.2
TAPY	≤ 0.2
FPRH	≤ 0.2
RIQQ	≤ 0.2
LSTR	≤ 0.2
PNAV	≤ 0.2
CLDR	≤ 0.2
PIQR	≤ 0.2
KVNE	≤ 0.2
SGAT	≤ 0.2
VSAM	≤ 0.2

Variant	one-hybrid fitness for binding parS DNA
YKPF	≤ 0.2
MSYG	≤ 0.2
GHLS	≤ 0.2
GLAW	≤ 0.2
AHHV	≤ 0.2
RVRI	≤ 0.2
HAAW	≤ 0.2
RRRA	0.501
TMYI	≤ 0.2
YSQV	≤ 0.2
VSCK	≤ 0.2
RTYP	≤ 0.2
PAKM	≤ 0.2
KRSR	≤ 0.2
PTTN	≤ 0.2
YLQW	≤ 0.2
PDYS	≤ 0.2
RWMR	≤ 0.2
EYHR	≤ 0.2
TITV	≤ 0.2
HQGS	≤ 0.2
GFLG	≤ 0.2
PQTM	≤ 0.2
HPIA	≤ 0.2
NEGN	≤ 0.2

Variant	one-hybrid fitness for binding parS DNA
KVSK	≤ 0.2
TLAP	≤ 0.2
FMSG	≤ 0.2
SIPW	≤ 0.2
VSCA	≤ 0.2
NDNR	≤ 0.2
PDGI	≤ 0.2
FDPG	≤ 0.2
TPCG	≤ 0.2
NWER	≤ 0.2
RAHF	0.24
SVIV	≤ 0.2
TSYC	≤ 0.2
CCKR	≤ 0.2
TNWA	≤ 0.2
QIRF	≤ 0.2
RYFS	1.02
NLTT	≤ 0.2
SYLH	≤ 0.2
YDFW	≤ 0.2
DQSA	≤ 0.2
PCDK	≤ 0.2
MPNF	≤ 0.2
GITT	≤ 0.2
RQQE	≤ 0.2

Variant	one-hybrid fitness for binding parS DNA
LNPR	≤ 0.2
NSQE	≤ 0.2
SMDN	≤ 0.2
DYIR	≤ 0.2
HIWE	≤ 0.2
QKPS	≤ 0.2
YHCG	≤ 0.2
NKDT	≤ 0.2
RKFI	≤ 0.2
NWRT	≤ 0.2
THTN	≤ 0.2
NGLW	≤ 0.2
LPIC	≤ 0.2
CSVC	≤ 0.2
VMGG	≤ 0.2
QHKL	≤ 0.2
GGFE	≤ 0.2
PQNG	≤ 0.2
RDKI	0.227
PAFA	≤ 0.2
IIYN	≤ 0.2
DTQV	≤ 0.2
HRGP	≤ 0.2
IRSE	≤ 0.2
GIKM	≤ 0.2

Variant	one-hybrid fitness for binding parS DNA
NRYT	≤ 0.2
ITRD	≤ 0.2
RNTD	≤ 0.2
QPPF	≤ 0.2
ARSM	≤ 0.2
FGDW	≤ 0.2
CDRS	≤ 0.2
STAA	≤ 0.2
APRT	≤ 0.2
ANHM	≤ 0.2
TVDM	≤ 0.2
CTDA	≤ 0.2
EWCS	≤ 0.2
GGTW	≤ 0.2
QIWL	≤ 0.2
HLQA	≤ 0.2
HKRK	≤ 0.2
QFGP	≤ 0.2
DLSS	≤ 0.2
SWKS	≤ 0.2
MPSI	≤ 0.2
LELS	≤ 0.2
WINC	≤ 0.2
CRMC	≤ 0.2
LSDW	≤ 0.2

Variant	one-hybrid fitness for binding parS DNA
LTRC	≤ 0.2
YRNL	≤ 0.2
FFAI	≤ 0.2
WMTT	≤ 0.2
QHPI	≤ 0.2
PDWN	≤ 0.2
GHLL	≤ 0.2
GAAR	≤ 0.2
QSMW	≤ 0.2
NAVG	≤ 0.2
NYKR	≤ 0.2
FTRL	≤ 0.2
RCGS	0.945
QLQD	≤ 0.2
GLVV	≤ 0.2
CEGG	≤ 0.2
HPWF	≤ 0.2
QCVL	≤ 0.2
ITNT	≤ 0.2
YSGG	≤ 0.2
